# Measurements from a collection of fitness landscapes (doi:10.1016/j.celrep.2020.107928).
# Over roughly 81,000 sequences, “one-hybrid fitness for binding parS DNA” has its median near -0.17; the highest 2% begin near 0.51. Some of the results follow.
# B1: Caulobacter ParB omega fusion; a variant is named by its letters at X, in order, B8GW30 (parent)
# chain: MESVVVGEPGMSEGRRGLGRGLSALLGEVDAAPAQAPGEQLGGSREAPIEILQRNPDQPRRTFREEDLEDLSNSIREKGVLQPILVRPSPDTAGEYQIVAGERAWRAAQRAGLKTVPIMVRELDDLAVLEIGIIENVQRADLNVLEEALSYKVLMEKFERTQENIAQTIGKSXSHVANXMRLLXLPDEVQSYLVSGELTAXHARAIAAAADPVALAKQIIEGGLSVRETEALARKAPNLSAGKSKGGRPPRVKDTDTQALESDLSSVLGLDVSIDHRGSTGTLTITYATLEQLDDLCNRLTRGI
# Variants of: B1
# Test: one-hybrid fitness for binding parS DNA (scaled: cognate 1, non-cognate 0); higher = stronger binding
# Settings: with parS DNA site
# Summary of the method: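 Caulobacter ParB libraries with four specificity codons randomised were screened by bacterial one-hybrid selection in the E. coli USO strain, using a HIS3 reporter whose site lies 19 bp from the promoter. Selection ran for 48 hours at 37°C on M9 lacking histidine, with 0.1 mM IPTG and 5 mM 3-AT. Plasmids were Illumina-sequenced before and after selection, three replicate libraries were pooled, and variants with under 10 reads were dropped. Fitness is the log change in each variant's read ratio to wild type, rescaled against the cognate and non-cognate sites.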
row,Variant,one-hybrid fitness for binding parS DNA
1,SWIT,≤ 0.2
2,TRGV,≤ 0.2
3,ALHD,≤ 0.2
4,FFPT,≤ 0.2
5,NMRS,≤ 0.2
6,MWRT,≤ 0.2
7,RCAR,≤ 0.2
8,LSPS,≤ 0.2
9,LPPF,≤ 0.2
10,MFES,≤ 0.2
11,HSHE,≤ 0.2
12,RSTQ,≤ 0.2
13,RAMV,≤ 0.2
14,ETVR,≤ 0.2
15,FAYR,≤ 0.2
16,TCTI,≤ 0.2
17,LARM,≤ 0.2
18,CNPF,≤ 0.2
19,KNLA,≤ 0.2
20,QITL,≤ 0.2
21,HHHR,≤ 0.2
22,LDVK,≤ 0.2
23,MPAK,≤ 0.2
24,KTSI,≤ 0.2

row,Variant,one-hybrid fitness for binding parS DNA
1,WTKR,≤ 0.2
2,YDTH,≤ 0.2
3,QFRS,≤ 0.2
4,RNPW,≤ 0.2
5,SRRV,≤ 0.2
6,QKYM,≤ 0.2
7,SRFG,≤ 0.2
8,RTKK,≤ 0.2
9,EIYR,≤ 0.2
10,SYMC,≤ 0.2
11,VAYG,≤ 0.2
12,FQSS,≤ 0.2
13,TSEV,≤ 0.2
14,YPLT,≤ 0.2
15,CGLT,≤ 0.2
16,RRID,≤ 0.2
17,NRCS,≤ 0.2
18,HGVR,≤ 0.2
19,CKYS,≤ 0.2
20,FSST,≤ 0.2
21,HFGG,≤ 0.2
22,MVQS,≤ 0.2
23,MMES,≤ 0.2
24,DKST,≤ 0.2

row,Variant,one-hybrid fitness for binding parS DNA
1,RNNF,≤ 0.2
2,QILR,≤ 0.2
3,RSYY,0.457
4,TKTA,≤ 0.2
5,SVYL,≤ 0.2
6,VRWL,≤ 0.2
7,FGGG,≤ 0.2
8,WQAC,≤ 0.2
9,LDGA,≤ 0.2
10,PTYS,≤ 0.2
11,HERR,≤ 0.2
12,CYQC,≤ 0.2
13,AAGY,≤ 0.2
14,YFVS,≤ 0.2
15,WKTC,≤ 0.2
16,SYWL,≤ 0.2
17,WSQS,≤ 0.2
18,ACAS,≤ 0.2
19,RLTE,≤ 0.2
20,MCVR,≤ 0.2
21,REAY,≤ 0.2
22,KTPK,≤ 0.2
23,ARMR,≤ 0.2
24,GTPD,≤ 0.2

row,Variant,one-hybrid fitness for binding parS DNA
1,VLCV,≤ 0.2
2,VYTF,≤ 0.2
3,SLKP,≤ 0.2
4,LLHP,≤ 0.2
5,FWRE,≤ 0.2
6,PNKI,≤ 0.2
7,VAWH,≤ 0.2
8,PPVE,≤ 0.2
9,TTYD,≤ 0.2
10,QADE,≤ 0.2
11,FTYS,≤ 0.2
12,HCQS,≤ 0.2
13,YTSS,≤ 0.2
14,YTFC,≤ 0.2
15,VVSD,≤ 0.2
16,NVKT,≤ 0.2
17,NLNY,≤ 0.2
18,QMEK,≤ 0.2
19,QRNS,≤ 0.2
20,TTPV,≤ 0.2
21,ATPW,≤ 0.2
22,EPCR,≤ 0.2
23,SKAC,≤ 0.2
24,QWNN,≤ 0.2

row,Variant,one-hybrid fitness for binding parS DNA
1,KTVT,≤ 0.2
2,YHAM,≤ 0.2
3,MALA,≤ 0.2
4,KTQW,≤ 0.2
5,EKPL,≤ 0.2
6,PYQV,≤ 0.2
7,LKKD,≤ 0.2
8,AACC,≤ 0.2
9,QWTS,≤ 0.2
10,TWEC,≤ 0.2
11,GTPR,≤ 0.2
12,LHWT,≤ 0.2
13,CCNS,≤ 0.2
14,KAEC,≤ 0.2
15,AIGW,≤ 0.2
16,DAIK,≤ 0.2
17,IQHG,≤ 0.2
18,QQMN,≤ 0.2
19,LGTD,≤ 0.2
20,EAQR,≤ 0.2
21,SLAI,≤ 0.2
22,SVYF,≤ 0.2
23,VVFS,≤ 0.2
24,HYVR,≤ 0.2

row,Variant,one-hybrid fitness for binding parS DNA
1,DSAR,≤ 0.2
2,FAFS,≤ 0.2
3,HDNF,≤ 0.2
4,NAPW,≤ 0.2
5,VTSN,≤ 0.2
6,LAAG,≤ 0.2
7,RRIW,≤ 0.2
8,PHLK,≤ 0.2
9,RYES,0.975
10,PRTE,≤ 0.2
11,NQFD,≤ 0.2
12,MNRI,≤ 0.2
13,QEVT,≤ 0.2
14,EAVD,≤ 0.2
15,RILP,≤ 0.2
16,SSVG,≤ 0.2
17,VYCE,≤ 0.2
18,DIRD,≤ 0.2
19,EVMR,≤ 0.2
20,CYRF,≤ 0.2
21,TSSK,≤ 0.2
22,KHNH,≤ 0.2
23,RCWP,0.252
24,YDKG,≤ 0.2

row,Variant,one-hybrid fitness for binding parS DNA
1,WLRL,≤ 0.2
2,THTT,≤ 0.2
3,ECNK,≤ 0.2
4,TYSV,≤ 0.2
5,MTSN,≤ 0.2
6,TKNT,≤ 0.2
7,DVTR,≤ 0.2
8,NYGY,≤ 0.2
9,RIFC,0.96
10,LVPV,≤ 0.2
11,HRQT,≤ 0.2
12,HAPN,≤ 0.2
13,QMDS,≤ 0.2
14,KRPS,≤ 0.2
15,PKDA,≤ 0.2
16,NCFS,≤ 0.2
17,YCRA,≤ 0.2
18,YGCL,≤ 0.2
19,QLDS,≤ 0.2
20,TYQT,≤ 0.2
21,NAAM,≤ 0.2
22,CDRV,≤ 0.2
23,WTHY,≤ 0.2
24,QHQI,≤ 0.2

row,Variant,one-hybrid fitness for binding parS DNA
1,HLNI,≤ 0.2
2,MLTS,≤ 0.2
3,HHYV,≤ 0.2
4,VDSE,≤ 0.2
5,QHDT,≤ 0.2
6,FSIC,≤ 0.2
7,QAAK,≤ 0.2
8,YSVF,≤ 0.2
9,QRLV,≤ 0.2
10,REAK,≤ 0.2
11,WVEP,≤ 0.2
12,VCIT,≤ 0.2
13,CYNG,≤ 0.2
14,GYEN,≤ 0.2
15,GNFA,≤ 0.2
16,YGNG,≤ 0.2
17,APHK,≤ 0.2
18,KVES,≤ 0.2
19,NLWT,≤ 0.2
20,QIRV,≤ 0.2
21,WIAI,≤ 0.2
22,LFPS,≤ 0.2
23,IQKL,≤ 0.2
24,YPPN,≤ 0.2

row,Variant,one-hybrid fitness for binding parS DNA
1,PTKD,≤ 0.2
2,LMTR,≤ 0.2
3,RKKW,0.21
4,SSLP,≤ 0.2
5,SWFT,≤ 0.2
6,RKTL,≤ 0.2
7,YWEG,≤ 0.2
8,PAHE,≤ 0.2
9,YDMR,≤ 0.2
10,HPDT,≤ 0.2
11,TENL,≤ 0.2
12,VHTL,≤ 0.2
13,TPRV,≤ 0.2
14,HYEG,≤ 0.2
15,SHKS,≤ 0.2
16,FAMS,≤ 0.2
17,RDIC,≤ 0.2
18,SVVM,≤ 0.2
19,CVQG,≤ 0.2
20,SNCL,≤ 0.2
21,SHHD,≤ 0.2
22,PPEC,≤ 0.2
23,VVWS,≤ 0.2
24,QCYN,≤ 0.2

row,Variant,one-hybrid fitness for binding parS DNA
1,YFMY,≤ 0.2
2,RTDM,0.289
3,RDWT,≤ 0.2
4,RKMT,0.824
5,RGPK,≤ 0.2
6,YSQW,≤ 0.2
7,WGYG,≤ 0.2
8,LWET,≤ 0.2
9,LFAT,≤ 0.2
10,SGVG,≤ 0.2
11,KTES,≤ 0.2
12,PCHT,≤ 0.2
13,IWQV,≤ 0.2
14,RAQW,0.226
15,DYEV,≤ 0.2
16,KCAS,≤ 0.2
17,AHTI,≤ 0.2
18,YESP,≤ 0.2
19,CSVV,≤ 0.2
20,KPIC,≤ 0.2
21,MTTN,≤ 0.2
22,ESTT,≤ 0.2
23,WICC,0.213
24,YYNH,≤ 0.2

row,Variant,one-hybrid fitness for binding parS DNA
1,GMAS,≤ 0.2
2,WPKV,≤ 0.2
3,GPAL,≤ 0.2
4,MRNY,≤ 0.2
5,KLKS,≤ 0.2
6,EGLY,≤ 0.2
7,RRTK,≤ 0.2
8,AACG,≤ 0.2
9,REWL,≤ 0.2
10,GALF,≤ 0.2
11,QHWW,≤ 0.2
12,ETTR,≤ 0.2
13,RIWY,0.471
14,DYYT,≤ 0.2
15,AYLC,≤ 0.2
16,SRKR,≤ 0.2
17,ALCG,≤ 0.2
18,MVCG,≤ 0.2
19,WNWG,≤ 0.2
20,NVGR,≤ 0.2
21,ARWC,≤ 0.2
22,QKTK,≤ 0.2
23,GEYR,≤ 0.2
24,DVSL,≤ 0.2

row,Variant,one-hybrid fitness for binding parS DNA
1,FSVL,≤ 0.2
2,SEST,≤ 0.2
3,ITSH,≤ 0.2
4,PHRE,≤ 0.2
5,YSLW,≤ 0.2
6,MHAS,≤ 0.2
7,GGIV,≤ 0.2
8,WIDG,≤ 0.2
9,SKKK,≤ 0.2
10,SEIC,≤ 0.2
11,GTAQ,≤ 0.2
12,EVKR,≤ 0.2
13,KYAR,≤ 0.2
14,RINH,0.284
15,RQMV,≤ 0.2
16,LMYS,≤ 0.2
17,VAST,≤ 0.2
18,WKRA,≤ 0.2
19,ACKF,≤ 0.2
20,LTRG,≤ 0.2
21,HTRA,≤ 0.2
22,LRND,≤ 0.2
23,YYEW,≤ 0.2
24,LCPK,≤ 0.2

row,Variant,one-hybrid fitness for binding parS DNA
1,FSKA,≤ 0.2
2,MRMW,≤ 0.2
3,PVRH,≤ 0.2
4,YTEG,≤ 0.2
5,SHGG,≤ 0.2
6,TERM,≤ 0.2
7,WAGC,≤ 0.2
8,TKRV,≤ 0.2
9,ESPC,≤ 0.2
10,FEVN,≤ 0.2
11,SYGL,≤ 0.2
12,QGSW,≤ 0.2
13,NYDT,≤ 0.2
14,HMHA,≤ 0.2
15,HPES,≤ 0.2
16,TFTV,≤ 0.2
17,PKLD,≤ 0.2
18,NYAH,≤ 0.2
